# Laboratory results: the RNAGym collection of RNA variant scans (doi:10.1073/pnas.2313332121)
# This sample is rich in variants without activity.
# B1: TPR 5TU (parent)
# chain: GGAUCUUCUCGAUCUAACAAAAAAGACAAAUCUGCCACAAAGCUUGAGAGCAUCUUCGGAUGCAGAGGCGGCAGCCUUCGGUGGCGCGAUAGCGCCAACGUUCUCAACUAUGACACGCAAAACGCGUGCUCCGUUGAAUGGAGUUUAUCAUG
# Variants of: B1
# Experiment: polymerase ribozyme fitness, log enrichment relative to wild type (log ratio); higher = more active; in vitro selection for triplet polymerase activity
# Outline: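 Each subunit of a heterodimeric triplet polymerase ribozyme was represented by a PCR-built, transcribed mutant library that underwent triplicate single-round in vitro selection with frozen incubation at −7 °C. Extended constructs were recovered by gel excision, streptavidin-bead capture and RT-PCR, and Illumina sequencing of input and output libraries kept genotypes with ≥10 input reads and ≥1 read per output. Fitness is the logarithm of genotype enrichment relative to wild-type enrichment, from inverse-variance-weighted replicate averages, with a logarithm base of 2.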
row,Variant,polymerase ribozyme fitness (log ratio)
1,GGAUCUUCUAGAUCUAACAUAAAAGACAAAUCUGCCACAAAGCUUGAGAGCAUCUUCCGAGGCAGAGGCGGCAGCCUUCGGUAACGCGAUAGCGCCAACGUUCUCAACUAUGACACGCAAAACGCUUGCUCCGUUGAAUGGAGUUUAUCAUG,≤ -4.2
2,GGAUCUUCGCGAUCUAACAAAAAAGACAAAGCUGCCACAAAGUUUGAGAGCAUCUUCGGAUGCAGAGGCGGAAGCCUUCGGUGGCGUGAUAGCGCCAACGUUCUCAACUAUGACACGCAAAACGCGUGCUCCGUUGAAUGGAGUUUAUCAUG,≤ -4.2
3,GGAUCUUCUAGAUCUAACAAAAAUGACAAAUCUGCCACAAAGCUUGAGACCAUCUUCGGAUGCAGAGGCGGCAGCCUUCGGUGGCUCGAUAGCGCCAACGUGCUCAACUAUGACACGUAAAACGCGUGCUCCGUUGAAUGCAGUUUAUCAUG,≤ -4.2
4,GGAUCUUCUAGAUCUCACAAAAAAGACAAAUCUGCCACAAAGCAUGAGAGCAUCUUCGGAUGCAGAGGCGGCAGCAUUCGGUGGCGAGAUAGCGCCAACGUUCUCAACUAUGACACGCAAAACGCGUGCUCCGUUGAAUGGAGUUUAUCAUG,≤ -4.2
5,GGAUCUUCGCGAGCUAACAAUAAAGACAAAUCUGCCACAAUGCUUGAGAGCAUCAUCGGAUGCAGAGGCGGCAGGCUUCGGUGGCGUGAUAGCGCCAACGUUCUCAACUAUGACACGCAAAACGCGUGCUCCGUUGAAUGGAGUUUAUCAUG,≤ -4.2
6,GGAUCUUCGCGAUCUAACAAAAAAGACAAAUCUGCCACAAAACUUGAGAGCAUCUUGGGAUGCAGAGGCGGCAGCCUUUGGGGGGGCGAUAGCGCCAACGUUCUAAACUAUGACACGCAAAACGCGUGCUCCGUUGAAUGGAGCUUAUCAUG,≤ -4.2
7,GGAUCUUCGCGAUCUAACAAAAAAGACAAAUCUGCCACAAAGCUUGAGAGCAACUUCGGAUGCAGAGGCGGCAGCCUUCGGUGGCUCGAUAGCGCCAAGGUUCUGAACCAUGACACGUAAAACGCGUGCUCCGAUGAAUGGAGUUUAUCAUG,≤ -4.2
8,GGAUCUUCUAGAUCUAACACAAAAGACCAAUCUGCCACAAAGCUUGAGAGCAUAUUCGGAUGCAGAGGCGGCAGCCUUCGGUAGCUCGAUAGCGCCAACGUUCGGAACUAUGACACGCAAAACGCGUGGUCCGUUGAAUAGAGUUUAUCAUG,≤ -4.2
9,GGAUCUUCUAGAUCUAACAUAAAAGACAAAUCUGCCACAAAGCUUGAGAGCAUCUUCGGAUGCAGAGGCGGCAGCCUUCGGUGGCGCUAUAGCGCCAACGUUCUCAACUAUGACACGCAAAACGCGUCCUCCGUUGAAUGGAGUUGAUCAUG,≤ -4.2
10,GGAUCUUCGCGAUCUAACAAAAAAGACAAAUCUACCACAAAGCUUGAGCGCAUCUACGGAUGCAGAGGCGGCAGCCUUCGGUGGCGCGAUAGAGGCAACGUUCUCAACUAUGACACGCAAAACGCGUGCUCCGUUGAAUCGAGUUCAUCAUG,≤ -4.2
11,GGAUCUUCUAGUUCUAACAAAAAAGACAAAUCUGCCACAAGGCUUGAGAGCAUCUUCGGAUGCAGAGGCGGCAGCCUUCGGUGGCGCGAUAGCGCAAACGUUCUCACCUAUGAAACGCAAAACGCGUGCUCCGUUGAAUGGAGUUUAUCAUG,≤ -4.2
12,GGAUCUUCGCGAACUAACAACAAAGACAAAUCUGCCACAACGCUUGAGAGCAUCUGCGGAUGCAGAGGCGGCAGCCUUCGGUGGCGCGACAGCGCCAACGUUCUCAACUAUGACAGGCAAAACGCGUGCUCCGUUGAAUGGAGUUUAUCAUG,≤ -4.2
13,GGAUCUUCUAGAUCUAACACAAAAGACAAAUAUGCCACAAAGCUUGAGAGCAUCUUCGGAUGCAGAGGCGGCAGCCUUCGGUGGCGCGAUAGUGCCAACGUUCUUAACUAUGACACGCAAAAUGCGUGCUGCGUUGAAUGCAGUUUAUCAUG,≤ -4.2
14,GGAUCUUCUAGAUCUAACAUAAAAGACAAAUCUGCCACAAAGCUUGAGAACAUCUUCGGAUGCUGAGGCGGCAGCCUUCGGUGGCGCGAUAGCGCCAACGUUCUCAACUAUGACACGCAAAACGCGUGCUCCGUUGAAUGGGGUUCAUCAUG,≤ -4.2
15,GGAUCUUCGCGAUCUAACAAAAAAGACAAAGCUGCCACAAAGCUUGAGAGCAUCUUUGGAUGCAGAGGGGGCAGCCUUCGGUGGCGCGUUAUCGCCAACGAUCUCAACUAUGACACGCGAAACGCGUGCUCCGUUGAAUGGAGUUUAUCAUG,≤ -4.2
16,GGAUCUUCUAGAUCUAACAAAAAAGACAAAUCUGCCACAAAGCUUGAGAGCAUCUUCGGUUGCAGAGGCGGCAGCCUUCGGUGGCGCGAUAGCACCAACGUUCUCAACUAUGACACGCAAAACGCGUGCUCCGUUGAAUAGAGGUUAUCAUG,≤ -4.2
17,GGAUCUUCUAGAUCUAACAAAAAAGUCAAAUCUGCCACAAAGCUUGAGAGCAUCUUCGGAUGCAGAGGCGGCAGCCUGCGGUGGCGCGAUAGCGCCAACGUUGUCAACUAUGACACGCAAAACGCGUGCUCCGUUGAAUGGAGUGUAUCAUG,≤ -4.2
18,GGAUCUUCGCGAUCUAACAAAAAAGACAAAUCUGCCACAAAGCAUGAGAGCACCUUCGGAUGCAGAGGCGGCAGCCUUCGGUGGUGCGAUAGCGCCAACGUUCUCAAGUAUGUCACGCAAAACGCGUGCUCCGUUGAAUGGAGUCUAUCAUG,≤ -4.2
19,GGAUCUUCGCGAUCUAACAAAAAAGACAAAUCUGCCACAAAGCUUGAGAGCAUCUUCGGAUGCAGAGGCGGCAGCCCUCGGUGGAGCGAUAGCGCCAACGUUCUCAACUAUGACACGCAAAACGCGUGCUCCGUUGAAUGGAGAUUAUCAUG,≤ -4.2

row,Variant,polymerase ribozyme fitness (log ratio)
1,GGAUCUUCGCGAUCUAACAAAAAAGACAAAUCUGCCACAAAGCUUGAGAGCAUCUUCGGAUGCAGAGGCGGCAGCCUUCGGUGGCGCGAUAGCGCCAACGUUCUCAACUAUGACACGUAAAACGAGUGCUCCGUUGAAUGGAGUUUAUCAUG,≤ -4.2
2,GGAUCUUCUAGAUCUAACAAAAAAGACGAAUCUGCCACAAAGCUUGAGAGCAUCUGCGGAUGCAGAGGCGGCAGCCUUCGGUGGAGCGAUAGCGCCAACGUUCUCAACUAUGACACGCAAAACGCGUGCUCCGUUGAAUGGAGUUUAUCAUG,≤ -4.2
3,GGAUCUUCUAGAUCUAACAAAAUAGACAAAUCUGCCACAAAGCUUGAGACCAUCUUCGGAUGCAGAGGCGGCAGCCUUCGGUGGCGCGAUAGCGCCAACGUUCUCAACUAUGACACGCAAAACGCGUGCUCCGUUGAAUGGAGUUUAUCAUG,≤ -4.2
4,GGAUCUUCGCGAUCUAACAAAAAAGACAAAUCUGCCACAAAGCUUGAGAGCAUCUUCGGAUGCAGAGGCGGCAGCCUUCGGUGGCGCGAUAGCGCCAACGUUCUCAACUAUGACACGCAAAACGCGUGCUCCGUUGAACGGAGUUUAUCAUG,≤ -4.2
5,GGAUCUUCGCGAGCUAACAAAAAACAGAAAUCUGCCACAAAGCUUGAGAGCAUCUUCGGAUGCAGAGGCGGCAGCAUUCGGUGGCGCGAUAGCGCCAACGUUCUCAACUAUGACACGCAAAACGCGUGCUCCGUUGAAUGGAGUUUAUCAUG,≤ -4.2
6,GGAUCUUCGCGAUCUAACAAAAAAAUCAAAUCUGCCACAAAGCUUGAGAGCAACUUCGGAUGCAGAGGCGGCAGCCUUCGGUGGAGCGAUAGCGCCAACGUUCUCAACUAUGACACGCAAAACGCGUGCUCCGUUGAAUGGAGUUUAUCAUG,≤ -4.2
7,GGAUCUUCUAGAUCUAACAAAAAAGACAAAUCUGCCACAAAGCUUGAGAGCAUCUUCGGAUGCAGUGGCGGCAGACUUCGGUGGCGCGAUAGCACCAACGUUCUCAACUAUGACACGCAAAACGCGUGCUCCGUUGAAUGGAGUUUAUCAUG,≤ -4.2
8,GGAUCUUCGCGAUCUAACAAAAAAGACAAAUCGGCCACAAAGCUUGAGAGCAUCUUCGGAUGCAGAGGCGGCAGCCUUCGGUGGAGCGAUAGCGCCAACGUUCUCAACUAUGACACGAAAAACGCGUGCUCCGUUGAAUGGAGUUUAUCAUG,≤ -4.2
9,GGAUCUUCUAGAUCUAUCAAAAAAGACAAAUCUGCUACAAAGCUUGAGAGCAUCUUCGGAUGCAGAGGCGGCAGCUUUCGGUGUCGCGAUAGCGCCAACGAUCGCAAUUAUGACACGCAACACGCGUGCUCCGUUGAAUGGAGUUUAUCAUG,≤ -4.2
10,GGAUCUUCGCGAUCUAACAAAAAAGACAAAUCUGCCACAAAGCUUGAGAACAUCUUCGGAUGCAGAGGCGGCAGCCUUCGGUGGCGCGAUAGCGCCAACGUUCUCAACUAUGACACGCAAAACGCGUGCUCCGUUGAAUGGAGUUUAUCAUG,≤ -4.2
11,GGAUCUUCGCGAUCGAACAAAAAAGACAAAUCUGCCACAAAGCUAGAGAGCAACUUCGGAUGCAGAGGCGGCAGCCUUGGGUGGCGGGAUAGCGCCAACGUUCUCAACUAUGACCCGCAAAACGCGUGCUCCGUUGAAUGGAGUUUAUCAUG,≤ -4.2
12,GGAUCUUCUAGUUCUAACAAAAAAGACAAAUCUGCCACAAAGCUUGAGAGCAUAUUCGGAUGCAGAGGCGGCAGCCUUCGGUGGUGCGAUAGCGCCAACGUUCUCAGCUAUGACACGCAAAACGCGUGCUCCGUUGAAUGGAGUUUAUCAUG,≤ -4.2
13,GGAUCUUCUAGGUCUAACAAAACAGACAAAUCUGCCACAAAGCUUGAGAGCAUCAUCGGAUGCAGAGGCGGCAGCCUUCGGUGGCGCGAUAGCGCCAACGUUCUCAACUAUGACACGCAAAACGCGUGCUCCGUUGAAUGGAGUUUAUCAUG,≤ -4.2
14,GGAUCUUCGCGAUCUAACAAAAAAGACAAAUCUGCCACAAAGCUUGAGAGCAUCUUCGGAUGCAGAGGCGGCAGCCCUCGGUGGAGCGAUAGCGCCAACGUUCUCAAUUAUGACACGCACAACGCGUGCUCCGUUGAAUGCAGUUUAUCAUG,≤ -4.2
15,GGAUCUUCGCGAUCUAACAAAAAAGACAAAUCGGCCACAAAGCUUGAGAGCAUCUUCGAAUGCAGAGGCGGCAGCCUUCGGUGGCGCGAUAGCGCCAACGUUCUCAACUAUGACACGCAAAACGCGUGCUCCGUUGAAUUGAGUUUAUCAUG,≤ -4.2
16,GGAUCUUCUAGAUCUAACAAAAUAGACAAAUCUGCCACAAAGCAUGAGAGCAUCUUCGGAUGCAGAGGCAGCAGCCUUCGGUGGCGCAAUAGCGCCAACGUUCUCAACUAUGAGACGCAAAACGCGUGCUCCGUUGAAUGGAGUUUAUCAUG,≤ -4.2
17,GGAUCUUCGCGAUCUAACAAAAAAGACAAAUCUGCCACAAAGCUUGAGAGCAACUUCGGAUGCAGAGGCGGCAGCCUUCGGUGGCGCGAUAGCGCCAACGUUCUCAACUAUGACACGCAAAACGCGUGCUCCGUUGAAUGGAGUUUAUCAUG,-3.81
18,GGAUCUUCUAGAUCUAACAUAAAAGACAAAUCUGCCACAAAGCUUGAGAUCAUCGUCGGAUGCAGAGUCGGCAGCCUUCGGUGGCGCGAGAGCGCCUAUGUUCUCAACUAUGACACGCAAACCGCGUGCUCCGUUGAAUGGUGUUUAUCAUG,≤ -4.2
19,GGAUCUUCUAGAUCUAACAAAAAAGGCAAAUCUGCCACAAAGCUUGAGAGCAUCUUCGUAUGCAGGGGCGGCAGCCUUCGGUGGUGCGAUAGCGCCAACGUUCUCAACUAUGACACGAAAAACGCGUGCUCCGUUUAAUGGAGUUUAUCAUG,≤ -4.2
